22 molecules from publication PMC12136788 can be followed below.

This is one part of the list.

The chains are these.
T1: UNK ZnF1-3 (human, UniProt Q9C0B0 31-174)
T1 sequence: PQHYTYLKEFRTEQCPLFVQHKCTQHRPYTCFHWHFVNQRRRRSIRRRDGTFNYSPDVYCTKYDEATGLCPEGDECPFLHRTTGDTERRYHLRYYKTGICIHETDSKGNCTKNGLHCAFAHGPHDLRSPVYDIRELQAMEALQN

B1: 63786348_63789542_463_CDS_ENSMUSG00000027823_ENSMUST00000029405|mouse|control|control (ssRNA)
RNA: GGGAGUUCUACAGUCCGACGAUCUCCAAAGACUUUAUUCAUCAUCUGCAUGCCAUAGCAAAUUCCUAGAAUAGGCUUGCCAAUGGUAAAUAUUGCUGGAUCAAACCAGGGAGCAUCCUCUGCAUACACAGAAUUAGGUCCUCCCAACAGAGGAUUGAGCAUCA
B2: chr19:8913615:8913616:-_ENSMUSG00000071658_ENSMUST00000096259|mus_mus|motif|central (ssRNA)
RNA: GGGAGUUCUACAGUCCGACGAUCGAGGGGGCACCAAACCCUGCCUCAGAUAGGUGCCCCACCCUGCCAGGACUUGGAGCGGAAAAUAUCCGUAGCACUGACAGUUAAUGCAGAGAAGGUCACUAGAGAUGCUCAGACGAGAUCCAACAGAGGAUUGAGCAUCA
B3: chr12:120565580:120565581:-_ENSG00000089154_ENST00000300648|hu_mus|FALSE|FALSE (ssRNA)
RNA: GGGAGUUCUACAGUCCGACGAUCGGGAGGAGGCGAUCUUCAGUUGUGUGUGGGUUGGAUUUAAGGCUUUGGCUCUGGUCGCUUGAUGUACUAAAAUACUUUCUGGGAAUGCCAUCUCCUGAGCUCCCCCUUGGAAUAAAAGUACAACAGAGGAUUGAGCAUCA
B4: 100592288_100605063_171_5pUTR_ENSMUSG00000023032_ENSMUST00000023776|mouse|control|control (ssRNA)
RNA: GGGAGUUCUACAGUCCGACGAUCCCUCUGAUAGCUGAGGACGCCGUCCGGCUCGUUGCUCCCGGCGGGCAUGGCCGGGCGGAGCCUGGUCUCGCCGGUAGGUUCCAGGUUGAGCUGCAGCAGUCCGCGCCCUGUAGUCCAGUGCAACAGAGGAUUGAGCAUCA
B5: chr14:66974463:66974464:+_ENSMUSG00000022044_ENSMUST00000074523|mus_hu|mus_mus_mus_hu_False|28_68 (ssRNA)
RNA: GGGAGUUCUACAGUCCGACGAUCUUGUAGGACGACUUAUUCAGGGGAUCGGCCAGGAAGCAGGAGCAGAACAGAGACACCAGCGGGAGCUCCUUCAUCUUCUCUUUAUAGGCUGCAAGGGUCAUGUUUCUGGGAUCUGGUGGCCAACAGAGGAUUGAGCAUCA
B6: chr8:8618132:8618133:-_ENSMUSG00000001300_ENSMUST00000001319|mus_hu|FALSE|FALSE (ssRNA)
RNA: GGGAGUUCUACAGUCCGACGAUCCUUCAAACAAAGGGACAGUUGGUAGAUUGUCAUAUUCUGCACCAGACACAAAACAGACGCACAGAACACUUUUCAAUUGGUUGCAGGGAACUCUUUUAUCAAUUCAUCUGAUUUUUCACACAACAGAGGAUUGAGCAUCA
B7: chr3:176743309:176743310:-_ENSG00000177565_ENST00000430069|hu_mus|FALSE|FALSE (ssRNA)
RNA: GGGAGUUCUACAGUCCGACGAUCUGUACACAUUCAUAGUCGGUCCAUGGCUUCCAACUAGUAACGCUAUUUCCGAAGGUCUAAGACACAAACUGAACCGUCCGAAGCACUGGCUCCAACUUUGUCUCCUGCUGCGUUCCAGCACAACAGAGGAUUGAGCAUCA
B8: 163922485_163922605_671_3pUTR_ENSMUSG00000018209_ENSMUST00000018353|mouse|control|control (ssRNA)
RNA: GGGAGUUCUACAGUCCGACGAUCUCAGCCAUUUCUAUGGCAGUUAUUCCCAGAGACCAGAUGUCUGCCACACAGUUGUACCCAAUUUCCUGAAUAACUUCAGGAGCCAUCCAAAACGGGGUCCCUAUUACUGUAUUCCUCUUUCAACAGAGGAUUGAGCAUCA
B9: chr13:98016622:98016623:+_ENSMUSG00000041773_ENSMUST00000041623|mus_mus|motif|central (ssRNA)
RNA: GGGAGUUCUACAGUCCGACGAUCGACGAAUGCAGUAGGGAUCAGAGAGUAGGGAACAGUGGUUAUGCUGUUCCACACAUCGGAAGUUGGGUCGUAACAGUCCAAAGUCUUGCAGCGCUGAAUGCCGAAGUACCCUCCAACUACCAACAGAGGAUUGAGCAUCA
B10: chr14:78183846:78183847:+_ENSG00000119705_ENST00000557342|hu_hu|hu_hu_hu_mus_False|48_108 (ssRNA)
RNA: GGGAGUUCUACAGUCCGACGAUCUCUGUCUCAAAAAUCUUCAUCAGAUGUUUGAGCUCCGUGCAAAGCCUUUGCUCUUUGAGCUUGAACCUGGACCUAUGGGAGGGAAAGCACUGUCAGAAAAGGUAAUUUUUUUUUUAAAGACAACAGAGGAUUGAGCAUCA
B11: 74719947_74720067_766_CDS_ENSG00000070495_ENST00000397625|human|control|control (ssRNA)
RNA: GGGAGUUCUACAGUCCGACGAUCAUUAAACCAGGUAAUAGCUUCGUCUUGCUGGUUCCCUCCUUCGUCUCGGGUCACUUUGAUGAGUUCCCUGGGAGUGCUGGUAGGAAACAGGCACCAGCGCUUGUGGCCCUGAACUAAGGCCAACAGAGGAUUGAGCAUCA
B12: chr8:35894604:35894605:-_ENSMUSG00000031529_ENSMUST00000033929|mus_hu|motif|central (ssRNA)
RNA: GGGAGUUCUACAGUCCGACGAUCCUAUAGCAAUGCUUUAUAGAAGACAAACAGCUUAUUUCUAGGCUGUCAGGGACUUCGGGAAUAUUGAUGUUGUUAUUAGAAACAAUCCUCUGUAAUCCAGUCCCAGGUUGAAAUCUGAUCCAACAGAGGAUUGAGCAUCA
B13: 52941175_52943467_2140_CDS_ENSG00000134744_ENST00000257177|human|control|control (ssRNA)
RNA: GGGAGUUCUACAGUCCGACGAUCCCGUGCAACAUUCCUCUUGACUGAAAAUGGAUCUUCAAUGGCUAUUCGCCUUUUAGGCCAGUUUUUAUUUUCUCUUGUUAAAAUAUCUUGUAUCCGUACACAUAUGACAUAUUCCUCCAACAACAGAGGAUUGAGCAUCA
B14: chr8:95500983:95500984:-_ENSG00000164944_ENST00000437199|hu_hu|hu_hu_hu_mus_True|8_68 (ssRNA)
RNA: GGGAGUUCUACAGUCCGACGAUCAGAACACAUCUAUCGAGUAAAGGACCGUACAUGACGGCCUCUAACCACUGCCUCACUAACAAACUUUCCUCUCGAGCCUCCACUGCCGCUAUUUGUACUAGCCCCAGGAAGGUCCAGGCCCAACAGAGGAUUGAGCAUCA
B15: chr8:104447970:104447971:+_ENSG00000164934_ENST00000297579|hu_hu|hu_hu_hu_mus_False|68_108 (ssRNA)
RNA: GGGAGUUCUACAGUCCGACGAUCAUAUACCUCCCUGCUUCGGCUCUUGUCCACAGGAAAGAUUCUAAUAGAUUUAUCAAAGCUGGCAGACACAAAUUCCUUCCCAGUGGGAGAGUAGUCCACAUCAAGUACUGCAGACACGUGCAACAGAGGAUUGAGCAUCA
B16: 21082334_21082454_120_5pUTR_ENSMUSG00000007564_ENSMUST00000007708|mouse|control|control (ssRNA)
RNA: GGGAGUUCUACAGUCCGACGAUCUUUCUAUCAGGCAGCAGCGAGCUCCAGGCGGAAUCCGGGAUCGGGCGGGGCGGUGCCGGGGAAAGGACGCAAAGCGGACGUGGGGGCGCCCGAGCCGCCCUACAGGGGCCGUCCCGCCGCCAACAGAGGAUUGAGCAUCA
B17: chr7:7679991:7679992:-_ENSG00000106399_ENST00000396682|hu_hu|hu_hu_hu_mus_False|58_98 (ssRNA)
RNA: GGGAGUUCUACAGUCCGACGAUCUGGGAUGAAUCUUUUCCAGCCUCCCCACGAAGCACACGGGCCGGUCGAUAUACUGAGCUAGCAUGCUGGCGUUGACGCGCGCUUUGGGGAGCUGCAUUAUGUCCUCCAUGAUUCUGCCGCCAACAGAGGAUUGAGCAUCA
B18: 102313770_102313890_7086_3pUTR_ENSG00000166135_ENST00000299163|human|control|control (ssRNA)
RNA: GGGAGUUCUACAGUCCGACGAUCUGGCUGCCCAGGCAGAAGAGGCAUAAGACACUUCCUGUUUCUCUUCCUCUAGGGUGAGUUUAGGUACUAGACUCUUCUGUCUACCCUCAACUCAAUAUGGUUUAUCUAAGGUGUUUCUCGCAACAGAGGAUUGAGCAUCA
B19: chr8:42798479:42798480:+_ENSG00000168172_ENST00000307602|hu_mus|motif|central (ssRNA)
RNA: GGGAGUUCUACAGUCCGACGAUCCGAAUGCUCCCCAAUGAGGUUCACGUCAGGAAGGGUGAAAUCAUUAAUCUGCUGUCCGGAAAUCUCAUGAUUGUAAUCCAAGAUGCCUUUUAAAAUUUUCUUUAAAUUGCUGAUCUUUAACAACAGAGGAUUGAGCAUCA
B20: chr1:84754351:84754352:-_ENSMUSG00000026219_ENSMUST00000027421|mus_mus|motif|central (ssRNA)
RNA: GGGAGUUCUACAGUCCGACGAUCAGCAUGAUUUUUCAGAACAUCCUUCAGAAGUUCAGCAUCAGCAAAAUAAAUUAUCCGGAGAAUUGCUCUAAGGCACUUGUGUCUGACCGCAGGGCCUGCUGAGGAGCUGUACACUUCAUACAACAGAGGAUUGAGCAUCA
B21: chr6:72301320:72301321:+_ENSMUSG00000058706_ENSMUST00000077783|mus_hu|motif|central (ssRNA)
RNA: GGGAGUUCUACAGUCCGACGAUCUAGCCAGGACGGUCUGGAUCUCCUGAUUUCAUGAUCCGCCCGCCUCGGCCUCCCGGCCUCUUCCUUUACUUAAUAAGAAUGCGGUCUAAAUUUUCAGGUGCCAAGCCCCCAAACUCCUCUCAACAGAGGAUUGAGCAUCA
B22: chr2:152658766:152658767:-_ENSG00000162980_ENST00000295087|hu_hu|motif|central (ssRNA)
RNA: GGGAGUUCUACAGUCCGACGAUCACUCUGAAAUUCACUUUAACUGCUUGACAUAUAAUUUAAUACUUAAAAAUAAUAUAGCGGAGUUGUUUAAUAGUAUUUAUAGAAUGCUACUUUUCUGGGUAGACAUGUUUCACAAAACAGCAACAGAGGAUUGAGCAUCA

The target in the assay is T1, UNK ZnF1-3. As to the kind of experiment: nsRBNS (natural sequence RNA bind-n-seq); RBNS binding buffer (assumed for nsRBNS): 25 mM Tris pH 7.5, 150 mM KCl, 3 mM MgCl2, 0.01% Triton X-100, 500 ug/ml BSA, 20 U/ml SUPERase-In, 4 C; UNK is unkempt and MSI1 is Musashi-1; names of the RNAs are library labels; protein concentration not given here; high values mean tight binding.
The molecule B1 showed a binding signal of 0.762 enrichment R.

In the case of B2, the binding signal was found to be 1.1 enrichment R. In turn, B3 came in with a binding signal of 1.17 enrichment R. B4 showed a binding signal of 0.491 enrichment R. In turn, B5 came in with a binding signal of 2.47 enrichment R.

Take B6: the binding signal is 0.948 enrichment R. With B7 the figure was 0.948 enrichment R; with B8, 0.811 enrichment R; with B9, 0.882 enrichment R. The molecule B10 gave a binding signal of 1.52 enrichment R. To B11 belongs 0.595 enrichment R. To B12 belongs 0.575 enrichment R.

B13 had a binding signal of 0.732 enrichment R.

Regarding B14, the binding signal turned out to be 0.925 enrichment R.

The molecule B15 returned a binding signal of 1.4 enrichment R. B16 returned a binding signal of 0.641 enrichment R.

Turning to B17, the binding signal was 0.545 enrichment R. With B18 the figure was 0.594 enrichment R; with B19, 1.17 enrichment R; with B20, 2.6 enrichment R.

In turn, B21 had a binding signal of 0.712 enrichment R.

B22 displayed a binding signal of 2.19 enrichment R.
